In the supplement of paper PMC4967469:
The IC50 comes from the fitted curve, where viability falls to half of the control; fits outside the tested doses are given as limits. AUC sums up the same curve from the lowest dose to the 256-fold higher top dose: 1 means no effect, lower means more sensitive. For some of these results: Where the top dose is marked as inferred, it comes from the curve model; the source does not state it.

What was measured:
Test in all cases: Viability of human cancer cell lines after 72 h of drug (GDSC screen)
Obatoclax mesylate = compound: COC1=CC(c2cc3ccccc3[nH]2)=N/C1=C\c1[nH]c(C)cc1C [Obatoclax mesylate]; details: top dose 16 µM
Description: (§1)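 Human cancer cell lines in 384-well plates, medium with 10% serum, drug for 72 h over a 256-fold dose range (nine 2-fold or five 4-fold steps up to the top dose). Adherent lines were fixed and stained with the nucleic acid dye Syto60, suspension lines read with resazurin; signal relative to control wells, capped at 0 and 100%. One two-parameter sigmoid per drug and line, fitted in a mixed model over all curves with the slope shared within a line.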

STF-62247 = compound: Cc1cccc(Nc2nc(-c3ccncc3)cs2)c1 [STF-62247]; details: top dose 10.24 µM; top dose inferred
Description: as §1

CX-5461 = compound: Cc1cnc(CNC(=O)c2c(=O)c3ccc(N4CCCN(C)CC4)nc3n3c2sc2ccccc23)cn1 [CX-5461]; details: top dose 10.24 µM; top dose inferred
Description: as §1

CP724714 = compound: COCC(=O)NC/C=C/c1ccc2ncnc(Nc3ccc(Oc4ccc(C)nc4)c(C)c3)c2c1 [CP724714]; details: top dose 10.24 µM; top dose inferred
Description: as §1

Cell Line | AUC (Obatoclax mesylate) | IC50 (Obatoclax mesylate) | AUC (STF-62247) | IC50 (STF-62247) | AUC (CX-5461) | IC50 (CX-5461) | AUC (CP724714) | IC50 (CP724714)
22RV1 (prostate, adherent) | 0.307 | 0.25 µM | 0.982 | > 10.2 µM | 0.858 | > 10.2 µM | 0.967 | > 10.2 µM
42-MG-BA (glioma, adherent) | 0.658 | 2.83 µM | 0.98 | > 10.2 µM | 0.947 | > 10.2 µM | 0.985 | > 10.2 µM
201T (lung adenocarcinoma, adherent) | 0.367 | 0.389 µM | 0.977 | > 10.2 µM | 0.939 | > 10.2 µM | 0.974 | > 10.2 µM
451Lu (melanoma, adherent) | 0.114 | < 0.0625 µM | 0.981 | > 10.2 µM | 0.955 | > 10.2 µM | 0.985 | > 10.2 µM
639-V (bladder, adherent) | 0.206 | 0.163 µM | 0.98 | > 10.2 µM | 0.944 | > 10.2 µM | 0.985 | > 10.2 µM
647-V (bladder, adherent) | 0.191 | 0.12 µM | 0.973 | > 10.2 µM | 0.972 | > 10.2 µM | 0.982 | > 10.2 µM
769-P (kidney, adherent) | 0.135 | < 0.0625 µM | 0.904 | > 10.2 µM | 0.827 | 7.04 µM | 0.919 | > 10.2 µM
786-0 (kidney, adherent) | 0.025 | < 0.0625 µM | 0.89 | 10.2 µM | 0.714 | 2.44 µM | 0.965 | > 10.2 µM
5637 (bladder, adherent) | 0.142 | 0.089 µM | 0.983 | > 10.2 µM | 0.93 | > 10.2 µM | 0.981 | > 10.2 µM
8305C (thyroid, adherent) | 0.261 | 0.164 µM | 0.982 | > 10.2 µM | 0.982 | > 10.2 µM | 0.977 | > 10.2 µM
8505C (thyroid, adherent) | 0.091 | < 0.0625 µM | 0.977 | > 10.2 µM | 0.898 | > 10.2 µM | 0.984 | > 10.2 µM
23132-87 (stomach, adherent) | 0.473 | 0.841 µM | 0.983 | > 10.2 µM | 0.719 | 2.74 µM | 0.985 | > 10.2 µM
A172 (glioma, adherent) | 0.493 | 0.955 µM | 0.986 | > 10.2 µM | 0.913 | > 10.2 µM | 0.977 | > 10.2 µM
A204 (rhabdomyosarcoma, adherent) | 0.42 | 0.565 µM | 0.958 | > 10.2 µM | 0.654 | 1.95 µM | 0.974 | > 10.2 µM
BT-474 (breast, adherent) | 0.298 | 0.25 µM | 0.986 | > 10.2 µM | 0.957 | > 10.2 µM | – | –
Caov-4 (ovary, adherent) | 0.615 | 2.39 µM | – | – | – | – | 0.932 | > 10.2 µM
H290 (mesothelioma, adherent) | 0.175 | 0.117 µM | – | – | – | – | 0.989 | > 10.2 µM
HCC202 (breast, adherent) | 0.458 | 0.735 µM | 0.879 | > 10.2 µM | 0.966 | > 10.2 µM | – | –
JHU-029 (head and neck, adherent) | 0.077 | < 0.0625 µM | – | – | – | – | – | –
KP-1N (pancreas, adherent) | 0.203 | 0.125 µM | – | – | – | – | – | –
NCC021 (kidney, adherent) | – | – | 0.837 | 8.54 µM | 0.984 | > 10.2 µM | 0.967 | > 10.2 µM
NCI-H630 (large intestine, adherent) | – | – | 0.985 | > 10.2 µM | 0.923 | > 10.2 µM | 0.941 | > 10.2 µM
NCI-H650 (lung adenocarcinoma, adherent) | – | – | 0.983 | > 10.2 µM | 0.885 | > 10.2 µM | 0.981 | > 10.2 µM
OACM5-1 (oesophagus, semi-adherent) | – | – | 0.917 | > 10.2 µM | 0.63 | 1.53 µM | 0.963 | > 10.2 µM
OACp4C (oesophagus, adherent) | – | – | 0.852 | > 10.2 µM | 0.9 | > 10.2 µM | 0.892 | > 10.2 µM
OC-314 (ovary, adherent) | – | – | 0.985 | > 10.2 µM | 0.985 | > 10.2 µM | 0.975 | > 10.2 µM
OV-7 (ovary, adherent) | – | – | 0.945 | > 10.2 µM | 0.912 | > 10.2 µM | 0.957 | > 10.2 µM
